Measured values taken from paper PMC12820563, “FoxP3 forms a head-to-head dimer in vivo and stabilizes its multimerization on adjacent microsatellites”.
This is one part of the list.

target: T1, MBP-FoxP1dN (Mus musculus, UniProt P58462 326-579); assay: PD-seq (MBP pull-down with sequencing); 20 mM Tris-HCl pH 7.5, 100 mM NaCl, 1.5 mM MgCl2, 0.4 uM protein, 0.1 uM dsDNA library, 30 min, room temperature, amylose pull-down; high values mean tight binding; details: protein: recombinant; tags: His6-MBP; chain copies: 2; dsDNA, one strand shown
T1 sequence: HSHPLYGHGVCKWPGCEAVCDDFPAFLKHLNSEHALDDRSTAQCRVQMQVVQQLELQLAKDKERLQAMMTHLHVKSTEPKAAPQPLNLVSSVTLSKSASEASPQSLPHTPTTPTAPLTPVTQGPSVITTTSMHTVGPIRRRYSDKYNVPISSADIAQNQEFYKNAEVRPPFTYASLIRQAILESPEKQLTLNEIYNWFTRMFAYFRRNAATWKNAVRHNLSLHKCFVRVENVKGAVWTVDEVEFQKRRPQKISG
Summary of the method: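 The N-terminus-lacking fragment of mouse FoxP3 or FoxP1 carried a His6-MBP tag and was expressed in E. coli. At 0.4 µM it was incubated with 0.1 µM Klenow-filled degenerate double-stranded DNA library for 30 min at room temperature in Tris pH 7.5 buffer with NaCl and MgCl2, and complexes were caught on amylose resin, washed three times, released with proteinase K, PCR-barcoded and Illumina-sequenced. Binding is reads-per-million enrichment of pull-down over input with replicates pooled.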

Sequence | binding signal
GATGATTGTTCTCCCAGCTGATGAATTAAGCAGCTCGAGTAAACAAATTTTCCTAATCTTTCTGTTCAAGCGCCATCTAC | 0.868 RPM ratio (pull-down/input)
GATGATTGTTCTCCCAGCTGATGAATTTAACTCCTCGAGTAAACAAATTTTCCTAATCTTTCTGTTCAAGCGCCATCTAC | 0.748 RPM ratio (pull-down/input)
GATGATTGTTCTCCCAGCTGATGAATTACCTTGGTCGAGTAAACAAATTTTCCTAATCTTTCTGTTCAAGCGCCATCTAC | 0.861 RPM ratio (pull-down/input)
GATGATTGTTCTCCCAGCTGATGAATTATGCCGGTCGAGTAAACAAATTTTCCTAATCTTTCTGTTCAAGCGCCATCTAC | 0.919 RPM ratio (pull-down/input)
GATGATTGTTCTCCCAGCTGATGAATTTTTTTATTCGAGTAAACAAATTTTCCTAATCTTTCTGTTCAAGCGCCATCTAC | 0.953 RPM ratio (pull-down/input)
GATGATTGTTCTCCCAGCTGATGAATTTTCTCCATCGAGTAAACAAATTTTCCTAATCTTTCTGTTCAAGCGCCATCTAC | 1.08 RPM ratio (pull-down/input)
GATGATTGTTCTCCCAGCTGATGAATTTAGGGTATCGAGTAAACAAATTTTCCTAATCTTTCTGTTCAAGCGCCATCTAC | 1.07 RPM ratio (pull-down/input)
GATGATTGTTCTCCCAGCTGATGAATTCCGAGCCTCGAGTAAACAAATTTTCCTAATCTTTCTGTTCAAGCGCCATCTAC | 0.817 RPM ratio (pull-down/input)
GATGATTGTTCTCCCAGCTGATGAATTGCCCAACTCGAGTAAACAAATTTTCCTAATCTTTCTGTTCAAGCGCCATCTAC | 0.877 RPM ratio (pull-down/input)
GATGATTGTTCTCCCAGCTGATGAATTACGACAATCGAGTAAACAAATTTTCCTAATCTTTCTGTTCAAGCGCCATCTAC | 1.3 RPM ratio (pull-down/input)
GATGATTGTTCTCCCAGCTGATGAATTGCAGACGTCGAGTAAACAAATTTTCCTAATCTTTCTGTTCAAGCGCCATCTAC | 1.07 RPM ratio (pull-down/input)
GATGATTGTTCTCCCAGCTGATGAATTGAGTTAATCGAGTAAACAAATTTTCCTAATCTTTCTGTTCAAGCGCCATCTAC | 0.998 RPM ratio (pull-down/input)
GATGATTGTTCTCCCAGCTGATGAATTCGACAAGTCGAGTAAACAAATTTTCCTAATCTTTCTGTTCAAGCGCCATCTAC | 0.784 RPM ratio (pull-down/input)
GATGATTGTTCTCCCAGCTGATGAATTTGAACTATCGAGTAAACAAATTTTCCTAATCTTTCTGTTCAAGCGCCATCTAC | 0.841 RPM ratio (pull-down/input)
GATGATTGTTCTCCCAGCTGATGAATTCGGCTGCTCGAGTAAACAAATTTTCCTAATCTTTCTGTTCAAGCGCCATCTAC | 0.796 RPM ratio (pull-down/input)
GATGATTGTTCTCCCAGCTGATGAATTCTTGGATTCGAGTAAACAAATTTTCCTAATCTTTCTGTTCAAGCGCCATCTAC | 0.901 RPM ratio (pull-down/input)
GATGATTGTTCTCCCAGCTGATGAATTTAACGAATCGAGTAAACAAATTTTCCTAATCTTTCTGTTCAAGCGCCATCTAC | 0.949 RPM ratio (pull-down/input)
GATGATTGTTCTCCCAGCTGATGAATTCTATCATTCGAGTAAACAAATTTTCCTAATCTTTCTGTTCAAGCGCCATCTAC | 0.959 RPM ratio (pull-down/input)
GATGATTGTTCTCCCAGCTGATGAATTTTCATCATCGAGTAAACAAATTTTCCTAATCTTTCTGTTCAAGCGCCATCTAC | 1.08 RPM ratio (pull-down/input)
GATGATTGTTCTCCCAGCTGATGAATTCTCGATTTCGAGTAAACAAATTTTCCTAATCTTTCTGTTCAAGCGCCATCTAC | 0.897 RPM ratio (pull-down/input)

Sequence | binding signal
GATGATTGTTCTCCCAGCTGATGAATTCTTATAGTCGAGTAAACAAATTTTCCTAATCTTTCTGTTCAAGCGCCATCTAC | 0.944 RPM ratio (pull-down/input)
GATGATTGTTCTCCCAGCTGATGAATTTCGTACCTCGAGTAAACAAATTTTCCTAATCTTTCTGTTCAAGCGCCATCTAC | 0.818 RPM ratio (pull-down/input)
GATGATTGTTCTCCCAGCTGATGAATTGGCCGATTCGAGTAAACAAATTTTCCTAATCTTTCTGTTCAAGCGCCATCTAC | 0.843 RPM ratio (pull-down/input)
GATGATTGTTCTCCCAGCTGATGAATTGCCTATGTCGAGTAAACAAATTTTCCTAATCTTTCTGTTCAAGCGCCATCTAC | 0.918 RPM ratio (pull-down/input)
GATGATTGTTCTCCCAGCTGATGAATTAGAAGGTTCGAGTAAACAAATTTTCCTAATCTTTCTGTTCAAGCGCCATCTAC | 0.838 RPM ratio (pull-down/input)
GATGATTGTTCTCCCAGCTGATGAATTGGTGAGCTCGAGTAAACAAATTTTCCTAATCTTTCTGTTCAAGCGCCATCTAC | 0.9 RPM ratio (pull-down/input)
GATGATTGTTCTCCCAGCTGATGAATTCCAGGGATCGAGTAAACAAATTTTCCTAATCTTTCTGTTCAAGCGCCATCTAC | 0.842 RPM ratio (pull-down/input)
GATGATTGTTCTCCCAGCTGATGAATTAGCGGACTCGAGTAAACAAATTTTCCTAATCTTTCTGTTCAAGCGCCATCTAC | 0.819 RPM ratio (pull-down/input)
GATGATTGTTCTCCCAGCTGATGAATTGTCAGTTTCGAGTAAACAAATTTTCCTAATCTTTCTGTTCAAGCGCCATCTAC | 1.02 RPM ratio (pull-down/input)
GATGATTGTTCTCCCAGCTGATGAATTCCCATGCTCGAGTAAACAAATTTTCCTAATCTTTCTGTTCAAGCGCCATCTAC | 0.89 RPM ratio (pull-down/input)
GATGATTGTTCTCCCAGCTGATGAATTGGGGTAATCGAGTAAACAAATTTTCCTAATCTTTCTGTTCAAGCGCCATCTAC | 1.19 RPM ratio (pull-down/input)
GATGATTGTTCTCCCAGCTGATGAATTAGGGCCGTCGAGTAAACAAATTTTCCTAATCTTTCTGTTCAAGCGCCATCTAC | 0.779 RPM ratio (pull-down/input)
GATGATTGTTCTCCCAGCTGATGAATTCCATGGCTCGAGTAAACAAATTTTCCTAATCTTTCTGTTCAAGCGCCATCTAC | 0.788 RPM ratio (pull-down/input)
GATGATTGTTCTCCCAGCTGATGAATTTGAATACTCGAGTAAACAAATTTTCCTAATCTTTCTGTTCAAGCGCCATCTAC | 0.994 RPM ratio (pull-down/input)
GATGATTGTTCTCCCAGCTGATGAATTAGAGACCTCGAGTAAACAAATTTTCCTAATCTTTCTGTTCAAGCGCCATCTAC | 0.793 RPM ratio (pull-down/input)
GATGATTGTTCTCCCAGCTGATGAATTAGATCCTTCGAGTAAACAAATTTTCCTAATCTTTCTGTTCAAGCGCCATCTAC | 0.861 RPM ratio (pull-down/input)
GATGATTGTTCTCCCAGCTGATGAATTCGAAGCTTCGAGTAAACAAATTTTCCTAATCTTTCTGTTCAAGCGCCATCTAC | 0.79 RPM ratio (pull-down/input)
GATGATTGTTCTCCCAGCTGATGAATTGGACCCGTCGAGTAAACAAATTTTCCTAATCTTTCTGTTCAAGCGCCATCTAC | 0.824 RPM ratio (pull-down/input)
GATGATTGTTCTCCCAGCTGATGAATTGGATATGTCGAGTAAACAAATTTTCCTAATCTTTCTGTTCAAGCGCCATCTAC | 0.918 RPM ratio (pull-down/input)
GATGATTGTTCTCCCAGCTGATGAATTGATGTCCTCGAGTAAACAAATTTTCCTAATCTTTCTGTTCAAGCGCCATCTAC | 1.08 RPM ratio (pull-down/input)
